The subject of the data set is ATP. The data set is described as follows: switch fluorescence ratio, 500 uM ATP over buffer (Cy3 cluster intensity, sum of 5 cycles each) (fold (ratio)); higher = stronger signal-on switching upon ATP binding; sequences stand for … in TCGTCGGCAGCGTCAGATGTGTATAAGAGACAGTTTTTTTTTTTTTTTTTTTTTTTTT…TC. The following applies: aptamer strand: ATP DNA aptamer (quencher-CACCTGGGGGAGTATTGCGGAGGAAGG + anchor), 100 nM annealed; ATP concentration: 500 uM; one replicate. In outline:
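Between each of five buffer/ATP cycles, the flow-cell was stripped with NaOH and re-annealed. Each cycle imaged Cy3-labelled switching-strand clusters, annealed to 100 nM quencher-labelled ATP aptamer on a modified Illumina MiSeq flow-cell, first in selection buffer and then after 15 min with 500 uM ATP at 22 °C. The fluorescence ratio is summed target-cycle over summed buffer-cycle Cy3 intensity per cluster, averaged per switch-domain sequence, with clusters outside 100-1000 RFU excluded.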

Values marked as one replicate rest on one cluster of the flow cell; about a third of the high ones do not repeat.

We go through 120 sequences from the supplement of paper PMC10126150.
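Note: ATP exposure 15 min at 22 °C before imaging.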

Consider GATCTAGTCT, for which the switch fluorescence ratio came out at 1.04.

With GCCGGTTAGT, the switch fluorescence ratio came out at 1.03.

Take TAGCCGGTAC: the switch fluorescence ratio stood at 1.39.

Turning to AGAACCATA, the switch fluorescence ratio is 1.

Regarding CTTACAGGGA, the switch fluorescence ratio came to 0.972.

Turning to GTCCGTAAAT, the switch fluorescence ratio was 2.89.

TATTTAACGG: the switch fluorescence ratio came to 0.976.

As to CGCGGCATTT, the switch fluorescence ratio was 1.09.

Consider ATAAATGGTT, for which the switch fluorescence ratio was 1.01.

Turning to TTAGCCGGGG, the switch fluorescence ratio was 1.01.

Consider GCGGGCTTCT, for which the switch fluorescence ratio was determined as 0.968.

In the case of AACTCACCA, the switch fluorescence ratio stood at 1.14.

As to CTTTCGCTG, the switch fluorescence ratio amounted to 1.27.

Turning to TTTCGACTCA, the switch fluorescence ratio was found to be 1.03.

As to CAAGTCTCAC, the switch fluorescence ratio amounted to 1.04.

Regarding ATGAATGACT, the switch fluorescence ratio was determined as 0.997.

Turning to CATCTCTTTT, the switch fluorescence ratio was 0.991.

For the sequence GATCATATCG, the switch fluorescence ratio came to 0.974.

As to AAAGCAGAGC, the switch fluorescence ratio worked out at 0.948.

For GGGCTTGTAC, the switch fluorescence ratio was determined as 1.02.

CACTTCCGGC: the switch fluorescence ratio worked out at 1.44.

As to CGCCAACG, the switch fluorescence ratio was 1.02.

In the case of GGGAACATCA, the switch fluorescence ratio was determined as 1.03.

Consider TACGTATTAA, for which the switch fluorescence ratio is 1.17.

On to ATTTGCGACG, for which the switch fluorescence ratio worked out at 1.01.

As for TTATTTCACC, the switch fluorescence ratio turned out to be 0.978.

Take CTGCGTATGA: the switch fluorescence ratio amounted to 1.08.

For ATCTCAGCTT, the switch fluorescence ratio turned out to be 1.03.

Turning to GACATAAGAC, the switch fluorescence ratio was 1.45.

As for TGTCGCGGTT, the switch fluorescence ratio is 1.01.

In the case of CCATACTGGG, the switch fluorescence ratio stood at 1.04.

On to AACGATGGAC, for which the switch fluorescence ratio was determined as 1.09.

For ATTATAAGTT, the switch fluorescence ratio was determined as 1.03.

As to CCTGATCAAA, the switch fluorescence ratio worked out at 1.01.

As for CCTTCTGTCG, the switch fluorescence ratio is 1.48.

Regarding AAAGAAATGC, the switch fluorescence ratio was found to be 1.

Consider CAGACTCGTT, for which the switch fluorescence ratio was found to be 1.03.

In the case of CTTTCGTT, the switch fluorescence ratio is 0.988.

As to GCCGGCAATC, the switch fluorescence ratio amounted to 1.08.

Turning to AGGTCCGTGG, the switch fluorescence ratio is 1.03.

Take ACAGTCCACC: the switch fluorescence ratio came to 1.11.

Turning to GAGGGTCGAA, the switch fluorescence ratio worked out at 0.981.

For the sequence TTATAGTGTA, the switch fluorescence ratio is 0.986.

Regarding CCCAATTGGT, the switch fluorescence ratio turned out to be 1.

Take GGAGTCGGAT: the switch fluorescence ratio is 0.981.

GCGGGGTGAC: the switch fluorescence ratio came out at 1.08.

TGACGACGGC: the switch fluorescence ratio is 1.03.

In the case of TAAACCGTGT, the switch fluorescence ratio was 0.991.

On to AACGCGGTGT, for which the switch fluorescence ratio came to 1.03.

As for GGAAGGGACT, the switch fluorescence ratio amounted to 1.02.

Regarding GTGGGTGG, the switch fluorescence ratio came out at 1.01.

Regarding TGGAAAACGT, the switch fluorescence ratio was found to be 1.01.

In the case of GGGGATGGAG, the switch fluorescence ratio was 0.96.

GAGTCAGCAT: the switch fluorescence ratio was 1.83.

With CTGTTATAAC, the switch fluorescence ratio came to 1.01.

Take ACTCAGTCGG: the switch fluorescence ratio was 1.07.

Turning to GACTGGAAGA, the switch fluorescence ratio was 1.

For the sequence TCGGCAGGGC, the switch fluorescence ratio stood at 1.11.

CTTTTATTA: the switch fluorescence ratio came to 1.

With TCGCCGGGCA, the switch fluorescence ratio came to 1.03.

As to CAATGCACCG, the switch fluorescence ratio came to 0.998.

For the sequence AAAGTTGGCA, the switch fluorescence ratio came out at 0.982.

Take AGGAGACTTT: the switch fluorescence ratio was 0.989.

With AACTTAGTTA, the switch fluorescence ratio stood at 1.

On to CGCCAATCGC, for which the switch fluorescence ratio was 2.5.

Consider ACCTATAATA, for which the switch fluorescence ratio was found to be 1.

Consider GTGTCATATG, for which the switch fluorescence ratio stood at 0.981.

AAATCCGTCA: the switch fluorescence ratio stood at 1.06.

Regarding TTCCGAGTAT, the switch fluorescence ratio was 1.06.

As to CGCGATCGTG, the switch fluorescence ratio was 1.04.

Take GTGTAATGGA: the switch fluorescence ratio was 0.963.

Consider CACTTCTCCT, for which the switch fluorescence ratio came out at 1.08.

GGTAGAGCAA: the switch fluorescence ratio amounted to 1.49.

In the case of ACGTAGGGAA, the switch fluorescence ratio turned out to be 1.02.

Turning to CAGCTGATCT, the switch fluorescence ratio worked out at 1.02.

With ATTGTCCACT, the switch fluorescence ratio turned out to be 1.12.

AAATCCGTAC: the switch fluorescence ratio was determined as 1.45.

ATAAATGTCG: the switch fluorescence ratio was found to be 0.929.

Consider GGCTCATGCC, for which the switch fluorescence ratio turned out to be 1.55.

On to TGGATAATGG, for which the switch fluorescence ratio came to 0.972.

Consider CGTAATCTAG, for which the switch fluorescence ratio amounted to 0.971.

TTACATACTA: the switch fluorescence ratio was found to be 1.37.

With GGTCATATTA, the switch fluorescence ratio is 0.977.

Turning to AGGGGACTCG, the switch fluorescence ratio amounted to 0.958.

Turning to GCTATCCGAA, the switch fluorescence ratio turned out to be 1.02.

On to GCTGTGGTGA, for which the switch fluorescence ratio came to 0.99.

For TCAATTAATG, the switch fluorescence ratio came out at 0.952.

With CACTTCAAGG, the switch fluorescence ratio is 1.03.

On to TTCATGGACG, for which the switch fluorescence ratio is 0.975.

On to GTTGCACCTC, for which the switch fluorescence ratio was found to be 0.993.

As to TTAAGTGATG, the switch fluorescence ratio amounted to 0.999.

In the case of TCACTCTTTA, the switch fluorescence ratio was found to be 1.04.

GGCTATTGAA: the switch fluorescence ratio was 1.02.

As to TCTCGAAAGC, the switch fluorescence ratio worked out at 1.2.

With CCAGGTACTA, the switch fluorescence ratio was determined as 1.06.

Take CTTGGATGGA: the switch fluorescence ratio was determined as 0.956.

As for CGGTTATCCC, the switch fluorescence ratio stood at 0.994.

Turning to ACTTATGTTA, the switch fluorescence ratio turned out to be 1.02.

Take AGTGGTACGC: the switch fluorescence ratio was determined as 0.98.

With GGCAATAAT, the switch fluorescence ratio worked out at 1.31.

Take ATGGTTATCG: the switch fluorescence ratio was determined as 0.981.

In the case of GGAAAAGTA, the switch fluorescence ratio was found to be 0.986.

In the case of CCTTGGGTTC, the switch fluorescence ratio worked out at 2.21.

As to TTATTACGAG, the switch fluorescence ratio came out at 1.01.

On to TTGGGCTGAT, for which the switch fluorescence ratio stood at 0.975.

On to CATTTCTCTT, for which the switch fluorescence ratio is 0.993.

Consider CGGTTTGTCA, for which the switch fluorescence ratio worked out at 0.982.

With AGAAAATGTC, the switch fluorescence ratio came out at 0.987.

For TGTTTGCGGA, the switch fluorescence ratio stood at 1.01.

With GCGGTCAATC, the switch fluorescence ratio was 1.12.

Consider CTTAAGTCTA, for which the switch fluorescence ratio came out at 0.988.

For the sequence TAGGTAGTT, the switch fluorescence ratio came out at 0.995.

On to ATAAGCGACC, for which the switch fluorescence ratio amounted to 1.16.

Regarding AAACGTGCGC, the switch fluorescence ratio was 1.03.

For the sequence AAGCGTTGAT, the switch fluorescence ratio turned out to be 1.

With CGTAGTCAAG, the switch fluorescence ratio is 1.15.

With AACTGCAACT, the switch fluorescence ratio amounted to 1.16.

As to TGATTATTAA, the switch fluorescence ratio was 1.07.

Turning to CGCTCGCAAA, the switch fluorescence ratio is 5.48.

For the sequence CTCGCGTCTT, the switch fluorescence ratio amounted to 1.03.
